Data taken from article PMC4242493.
The list shows a part of the results. The list includes weakly bound sequences.

biological target: MaxL homodimer (UniProt P61244); test: universal protein-binding microarray (PBM); details: PBS-based mixture, 10 nM His-tagged protein dimer, 2% milk, 200 ng/uL BSA, 50 ng/uL salmon testes DNA, 0.02% TX-100; detection with Alexa 488 anti-His …; high values mean tight binding; most listed sequences are background and not binding sites; double strand, one strand shown
Chain of UniProt P61244 (P61244 whole entry): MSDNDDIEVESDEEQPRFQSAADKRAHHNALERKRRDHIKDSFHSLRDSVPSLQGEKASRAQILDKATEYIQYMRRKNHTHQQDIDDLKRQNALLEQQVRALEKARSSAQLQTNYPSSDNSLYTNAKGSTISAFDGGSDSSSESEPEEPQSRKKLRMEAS

| Sequence | binding signal (normalized occupancy) |
| --- | --- |
| TCAATCAA | 0.0799 |
| AGATTAAT | 0.078 |
| CAGCCAAA | 0.0719 |
| ACTATCCG | 0.0731 |
| ATCTGTGC | 0.0792 |
| CGGCATTC | 0.0756 |
| TAACCTGA | 0.0789 |
| CAGCAGGG | 0.0786 |
| TGCGTCCA | 0.0781 |
| AAAGCGAT | 0.0684 |
| CGACAATC | 0.0719 |
| AAATTTTC | 0.0678 |
| CTAATGAC | 0.0773 |
| AAAGCGCT | 0.0654 |
| GGAGTGGA | 0.0751 |
| AGTCACCG | 0.0724 |
| AATCCTAG | 0.072 |
| CACCGACC | 0.0761 |
| ACTTTCGA | 0.0725 |
| GCACCGGA | 0.0685 |
| GTTAATGA | 0.0786 |
| TCCGTTAA | 0.0746 |
| ATTATGAA | 0.0779 |
| ACTAACCT | 0.0752 |
| ATAGCTAC | 0.0782 |

| Sequence | binding signal (normalized occupancy) |
| --- | --- |
| ATCCATGC | 0.0942 |
| ACTTAACA | 0.0749 |
| AATTGCAG | 0.0723 |
| TGCGTAAA | 0.0792 |
| GGGTCAAA | 0.0886 |
| ACCGAATG | 0.0811 |
| GGTTGGAC | 0.0689 |
| AATGAAAA | 0.0755 |
| CAGCGTTA | 0.0808 |
| AACCTTCG | 0.068 |
| GGGCGCCA | 0.0745 |
| GGAAAGAC | 0.0735 |
| AAAACTGC | 0.0757 |
| ATATTTTC | 0.0837 |
| CAGATATA | 0.081 |
| GGGGCTGA | 0.0775 |
| TTACATAA | 0.0775 |
| ACCAAGTG | 0.0737 |
| CTGTCTGA | 0.074 |
| CACACGTC | 0.0858 |
| CCCCTGCA | 0.0799 |
| ACGTTCCC | 0.0819 |
| CGCGGTTC | 0.0675 |
| CATGTGTA | 0.131 |
| ACTTCTAG | 0.0738 |

| Sequence | binding signal (normalized occupancy) |
| --- | --- |
| GAGTACCA | 0.0692 |
| AGTATGAG | 0.0766 |
| AATGTCAA | 0.0742 |
| AGATTACA | 0.0748 |
| TAAATTGA | 0.0794 |
| ATATCGAC | 0.0799 |
| CAGCACTA | 0.075 |
| GGGAGACA | 0.0731 |
| CTAAATAA | 0.0764 |
| ATAGCTGA | 0.0721 |
| CGAAAAGA | 0.0756 |
| CTTGTACA | 0.0753 |
| GATATTGC | 0.0822 |
| ACAGTGGA | 0.0794 |
| TCGACTCA | 0.0737 |
| AAAAACAT | 0.0797 |
| AAGTTGGA | 0.0711 |
| ATTCCAAG | 0.0723 |
| CACAGCAG | 0.0738 |
| ACCCGGAC | 0.0711 |
| ACGTCCCA | 0.0785 |
| CTCCAAGA | 0.0679 |
| AGACACTA | 0.0759 |
| AGCTTTAT | 0.0716 |
| CCTGCCAA | 0.0763 |

| Sequence | binding signal (normalized occupancy) |
| --- | --- |
| ACACAATA | 0.0815 |
| TCCATAAA | 0.0777 |
| ATATACAC | 0.0871 |
| AAAGCGTA | 0.0701 |
| CAACCGAG | 0.0678 |
| GAGTAATC | 0.0716 |
| CTCTACTC | 0.0747 |
| AAGTTTGG | 0.0676 |
| AGCGGTAC | 0.0717 |
| ATGCCGTA | 0.0815 |
| ACTCATCG | 0.0807 |
| CAATTGCC | 0.0739 |
| ACTCTTGG | 0.0728 |
| AGGAGCGC | 0.0659 |
| ATTAGTGC | 0.0733 |
| CGGCGCCC | 0.068 |
| ACGTATAA | 0.0801 |
| CCATGAAC | 0.0797 |
| GCGTTGCA | 0.078 |
| AAGGCCGC | 0.0666 |
| ACTGGCAC | 0.0774 |
| GTTTGACA | 0.0782 |
| AATAAACA | 0.0842 |
| CGTGCTAC | 0.0907 |
| AAGTCCCC | 0.0759 |

| Sequence | binding signal (normalized occupancy) |
| --- | --- |
| CGTGTAGC | 0.0837 |
| CTTAGAAG | 0.0745 |
| ATCTTTCA | 0.0831 |
| CTGCCGGC | 0.0638 |
| CAGGGCCC | 0.0698 |
| ATGCCCGA | 0.0773 |
| GGTGGCCA | 0.0813 |
| ACGTGGTG | 0.1 |
| ACCGTTTA | 0.0784 |
| CCCGTCCC | 0.0747 |
| GCACCGGC | 0.0755 |
| ATCAAAGA | 0.0692 |
| CAAGTCAA | 0.0782 |
| ATCCCCCA | 0.0884 |
| ATTTTGCA | 0.0753 |
| ACGGCCGC | 0.0677 |
| CTGGTATA | 0.0774 |
| ATGAGATG | 0.094 |
| CCATAATA | 0.0816 |
| GAGACTCA | 0.0747 |
| CGGCAGGC | 0.0662 |
| ACACTTAT | 0.0794 |
| AATCGGAG | 0.0688 |
| CAAGGCTC | 0.0708 |
| GATGACGA | 0.0823 |

| Sequence | binding signal (normalized occupancy) |
| --- | --- |
| ATCAGGAA | 0.0731 |
| ATGGTTTG | 0.0776 |
| AGGTGTCC | 0.0751 |
| AGGTTACA | 0.0739 |
| GTCCTGTA | 0.0738 |
| AAAACCAA | 0.0747 |
| GTTGCTAA | 0.0758 |
| ACAAAGAG | 0.0758 |
| GGGCGTTA | 0.0774 |
| ATACACTG | 0.0795 |
| GCTCAATA | 0.0723 |
| CGGTGCGA | 0.0686 |
| CTCAAGCA | 0.0708 |
| AAGTGCTG | 0.0716 |
| GAATTTTA | 0.0753 |
| CTCTCGTA | 0.0718 |
| GAGCCTAC | 0.0709 |
| GCAATGGA | 0.0742 |
| ATCTAGAC | 0.0737 |
| ATTGGCGA | 0.0813 |
| GGGATTTA | 0.0743 |
| GGCCGAAA | 0.067 |
| CCCTGACC | 0.0748 |
| ACGGATAT | 0.0773 |
| CTCTTGGA | 0.0683 |

| Sequence | binding signal (normalized occupancy) |
| --- | --- |
| AGTAGTAG | 0.0786 |
| CTCATTAC | 0.0827 |
| TACTTCTA | 0.0754 |
| AATGCAGT | 0.0781 |
| AGTAAACT | 0.073 |
| AAGATTGA | 0.0771 |
| ACTACGGC | 0.0697 |
| CGATTGCC | 0.0718 |
| ACCTTCTC | 0.0716 |
| AGGGTCTA | 0.0705 |
| GCATTACA | 0.0804 |
| GCGTAAAA | 0.0713 |
| AATTGTGA | 0.0766 |
| TGGGACCA | 0.0798 |
| GCCACATA | 0.0776 |
| GTCCGGCA | 0.0705 |
| TGGCACAA | 0.0776 |
| GGGTTGGA | 0.071 |
| AGTTATTC | 0.0805 |
| AGCATGCC | 0.112 |
| ATCGGCCA | 0.0714 |
| ACAAACGT | 0.0788 |
| TGCTCAAA | 0.0745 |
| ACGCTGTG | 0.0735 |
| AATGGTCT | 0.0762 |

| Sequence | binding signal (normalized occupancy) |
| --- | --- |
| ACACCGGC | 0.0707 |
| ACCAGAAA | 0.0769 |
| ATGAGGCG | 0.077 |
| CTCGCCAC | 0.0793 |
| CGATTCTA | 0.0764 |
| AGGTTCTG | 0.0772 |
| ATTAAGAA | 0.0754 |
| AGTCTCGA | 0.0741 |
| GATTGGCA | 0.0769 |
| GCGATAGC | 0.0715 |
| GAAATGGC | 0.0704 |
| AGATAGGG | 0.0734 |
| CGTGACGA | 0.0815 |
| CTTGGGAA | 0.0688 |
| CACCAGGC | 0.0736 |
| CACCCGTA | 0.0782 |
| TAAACCGA | 0.0706 |
| AGTTCAGC | 0.0711 |
| CCCTCTAG | 0.0703 |
| GCGGATCC | 0.0685 |
| CCTCTGAG | 0.0687 |
| AAAAGGCG | 0.0698 |
| AGGTCACA | 0.0775 |
| AGGAGGAC | 0.0737 |
| AGAAGGCA | 0.0834 |

| Sequence | binding signal (normalized occupancy) |
| --- | --- |
| GTCAAATA | 0.0793 |
| CTCGACAA | 0.0725 |
| CACATAAG | 0.0781 |
| GGCTTAAC | 0.0703 |
| AAAACTCA | 0.0783 |
| GTCGGACA | 0.073 |
| AGGGAGCC | 0.0674 |
| AAAGAAGA | 0.0797 |
| AAGCATGT | 0.0997 |
| TAGGCTCA | 0.0762 |
| CAACGCGA | 0.0767 |
| AGAATCAC | 0.074 |
| ACTGAGTA | 0.0741 |
| CTTGTGAC | 0.077 |
| CTATTACA | 0.083 |
| ACAGCCAA | 0.0735 |
| AACTAACC | 0.074 |
| CAGTCATG | 0.0864 |
| CATAGGGA | 0.076 |
